# Measurements from the supplement of paper PMC8728848.
# This is one part of the list.
# B1: Als3-41 (Candida albicans) (protein)
# chain: KTITGVFNSFNSLTWSNAATYNYKGPGTPTWNAVLGWSLDGTSASPGDTFTLNMPCVFKFTTSQTSVDLTAHGVKYATCQFQAGEEFMTFSTLTCTVSNTLTPSIKALGTVTLPLAFNVGGTGSSVDLEDSKCFTAGTNTVTFNDGGKKISINVDFERSNVDPKGYLTDSRVIPSLNKVSTLFVAPQCANGYTSGTMGFANTYGDVQIDCSNIHVGITKGLNDWNYPVSSESFSYTKTCSSNGIFITYKNVPAGYRPFVDAYISATDVNSYTLSYANEYTCAGGYWQRAPFTLRWTGYRNSDAGSNGIVIVATTRTVTDSTTAVTTLPFDPNRDKTKTIEILKPIPTTTITTSYVGVTTSYLTKTAPIGETATVIVD
# Key:
# Assay in all cases: glycan array binding signal (z-score within array); higher = stronger binding
# Details in all cases: glycan notation: IUPAC condensed, linker removed
# [1] = molecular target: GlcNAc(b1-3)Gal(b1-4)GlcNAc(b1-3)Gal(b1-4)GlcNAc(b1-2)Man(a1-3)[GlcNAc(b1-3)Gal(b1-4)GlcNAc(b1-3)Gal(b1-4)GlcNAc(b1-2)Man(a1-6)]Man(b1-4)GlcNAc(b1-4)GlcNAc
# Procedure, shortened: (§1)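 The binding signal is a Z-score computed within each array. Data were drawn from 3228 arrays in the Consortium for Functional Glycomics database, restricted to those with a known protein sequence. Scores were averaged over arrays of the same protein sequence at different concentrations or buffers, and over linkers, and negative values can be taken as non-binding.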
# [2] = molecular target: GlcNAc(b1-3)Gal(b1-4)GlcNAc(b1-3)Gal(b1-4)GlcNAc(b1-2)Man(a1-3)[GlcNAc(b1-3)Gal(b1-4)GlcNAc(b1-3)Gal(b1-4)GlcNAc(b1-2)Man(a1-6)]Man(b1-4)GlcNAc(b1-4)[Fuc(a1-6)]GlcNAc
# Procedure, shortened: as §1
# [3] = molecular target: GlcNAc(b1-3)Gal(b1-4)GlcNAc(b1-3)Gal(b1-4)GlcNAc(b1-2)[GlcNAc(b1-3)Gal(b1-4)GlcNAc(b1-3)Gal(b1-4)GlcNAc(b1-6)]Man(a1-6)[GlcNAc(b1-3)Gal(b1-4)GlcNAc(b1-3)Gal(b1-4)GlcNAc(b1-2)Man(a1-3)]Man(b1-4)GlcNAc(b1-4)[Fuc(a1-6)]GlcNAc
# Procedure, shortened: as §1
# [4] = molecular target: GlcNAc(b1-3)Gal(b1-4)GlcNAc(b1-3)Gal(b1-4)GlcNAc(b1-3)Gal(b1-4)GlcNAc(b1-2)Man(a1-3)[GlcNAc(b1-3)Gal(b1-4)GlcNAc(b1-3)Gal(b1-4)GlcNAc(b1-3)Gal(b1-4)GlcNAc(b1-2)Man(a1-6)]Man(b1-4)GlcNAc(b1-4)GlcNAc
# Procedure, shortened: as §1
# [5] = molecular target: GlcNAc(b1-3)Gal(b1-4)GlcNAc(b1-3)Gal(b1-4)GlcNAc(b1-3)Gal(b1-4)GlcNAc(b1-2)Man(a1-3)[GlcNAc(b1-3)Gal(b1-4)GlcNAc(b1-3)Gal(b1-4)GlcNAc(b1-3)Gal(b1-4)GlcNAc(b1-2)Man(a1-6)]Man(b1-4)GlcNAc(b1-4)[Fuc(a1-6)]GlcNAc
# Procedure, shortened: as §1
# [6] = molecular target: GlcNAc(b1-3)Gal(b1-4)GlcNAc(b1-3)Gal(b1-4)GlcNAc(b1-3)Gal(b1-4)GlcNAc(b1-2)[GlcNAc(b1-3)Gal(b1-4)GlcNAc(b1-3)Gal(b1-4)GlcNAc(b1-3)Gal(b1-4)GlcNAc(b1-6)]Man(a1-6)[GlcNAc(b1-3)Gal(b1-4)GlcNAc(b1-3)Gal(b1-4)GlcNAc(b1-3)Gal(b1-4)GlcNAc(b1-2)Man(a1-3)]Man(b1-4)GlcNAc(b1-4)[Fuc(a1-6)]GlcNAc
# Procedure, shortened: as §1
# [7] = molecular target: GlcNAc(b1-3)Gal(b1-4)GlcNAc(b1-3)Gal(b1-4)GlcNAc(b1-3)Gal(b1-4)GlcNAc(b1-3)Gal(b1-4)GlcNAc(b1-2)Man(a1-3)[GlcNAc(b1-3)Gal(b1-4)GlcNAc(b1-3)Gal(b1-4)GlcNAc(b1-3)Gal(b1-4)GlcNAc(b1-3)Gal(b1-4)GlcNAc(b1-2)Man(a1-6)]Man(b1-4)GlcNAc(b1-4)GlcNAc
# Procedure, shortened: as §1
# [8] = molecular target: GlcNAc(b1-3)Gal(b1-4)GlcNAc(b1-3)Gal(b1-4)GlcNAc(b1-3)Gal(b1-4)GlcNAc(b1-3)Gal(b1-4)GlcNAc(b1-2)Man(a1-3)[GlcNAc(b1-3)Gal(b1-4)GlcNAc(b1-3)Gal(b1-4)GlcNAc(b1-3)Gal(b1-4)GlcNAc(b1-3)Gal(b1-4)GlcNAc(b1-2)Man(a1-6)]Man(b1-4)GlcNAc(b1-4)[Fuc(a1-6)]GlcNAc
# Procedure, shortened: as §1
# [9] = molecular target: GlcNAc(b1-3)Gal(b1-4)GlcNAc(b1-3)Gal(b1-4)GlcNAc(b1-3)Gal(b1-4)GlcNAc(b1-3)Gal(b1-4)GlcNAc(b1-2)[GlcNAc(b1-3)Gal(b1-4)GlcNAc(b1-3)Gal(b1-4)GlcNAc(b1-3)Gal(b1-4)GlcNAc(b1-3)Gal(b1-4)GlcNAc(b1-6)]Man(a1-6)[GlcNAc(b1-3)Gal(b1-4)GlcNAc(b1-3)Gal(b1-4)GlcNAc(b1-3)Gal(b1-4)GlcNAc(b1-3)Gal(b1-4)GlcNAc(b1-2)Man(a1-3)]Man(b1-4)GlcNAc(b1-4)[Fuc(a1-6)]GlcNAc
# Procedure, shortened: as §1
# [10] = molecular target: GlcNAc(b1-3)Gal(b1-4)GlcNAc(b1-3)Gal(b1-4)GlcNAc(b1-3)GalNAc
# Procedure, shortened: as §1
# [11] = molecular target: GlcNAc(b1-3)Gal(b1-4)GlcNAc(b1-3)GalNAc
# Procedure, shortened: as §1
# [12] = molecular target: GlcNAc(b1-3)Gal(b1-4)GlcNAc(b1-3)[GlcNAc(b1-3)Gal(b1-4)GlcNAc(b1-3)]GalNAc
# Procedure, shortened: as §1
# [13] = molecular target: GlcNAc(b1-3)Gal(b1-4)GlcNAc(b1-6)[Gal(b1-3)]GalNAc
# Procedure, shortened: as §1
# [14] = molecular target: GlcNAc(b1-3)Gal(b1-4)GlcNAc(b1-6)[GlcNAc(b1-3)Gal(b1-3)]GalNAc
# Procedure, shortened: as §1
# [15] = molecular target: GlcNAc(b1-3)Gal(b1-4)GlcNAc(b1-6)[GlcNAc(b1-3)]Gal(b1-4)GlcNAc
# Procedure, shortened: as §1
# GlcNAc(b1-3)GalNAc = molecular target: GlcNAc(b1-3)GalNAc
# Procedure, shortened: as §1
# GlcNAc(b1-3)Man = molecular target: GlcNAc(b1-3)Man
# Procedure, shortened: as §1
# [16] = molecular target: GlcNAc(b1-3)[GlcNAc(b1-4)][GlcNAc(b1-6)]GlcNAc
# Procedure, shortened: as §1
# [17] = molecular target: GlcNAc(b1-3)[GlcNAc(b1-6)]Gal(b1-4)GlcNAc
# Procedure, shortened: as §1
# [18] = molecular target: GlcNAc(b1-3)[GlcNAc(b1-6)]GalNAc
# Procedure, shortened: as §1
# [19] = molecular target: GlcNAc(b1-4)Gal(b1-4)GlcNAc
# Procedure, shortened: as §1
# GlcNAc(b1-4)GlcNAc = molecular target: GlcNAc(b1-4)GlcNAc
# Procedure, shortened: as §1
# [20] = molecular target: GlcNAc(b1-4)GlcNAc(b1-4)GlcNAc
# Procedure, shortened: as §1
# [21] = molecular target: GlcNAc(b1-4)GlcNAc(b1-4)GlcNAc(b1-4)GlcNAc(b1-4)GlcNAc
# Procedure, shortened: as §1
# [22] = molecular target: GlcNAc(b1-4)GlcNAc(b1-4)GlcNAc(b1-4)GlcNAc(b1-4)GlcNAc(b1-4)GlcNAc
# Procedure, shortened: as §1
# [23] = molecular target: GlcNAc(b1-4)[GlcNAc(b1-6)]GalNAc
# Procedure, shortened: as §1
# [24] = molecular target: GlcNAc(b1-6)Gal(b1-4)GlcNAc
# Procedure, shortened: as §1
# GlcNAc(b1-6)GalNAc = molecular target: GlcNAc(b1-6)GalNAc
# Procedure, shortened: as §1
# [25] = molecular target: GlcNAc6S(b1-3)Gal(b1-4)GlcNAc
# Procedure, shortened: as §1
# Kdn(a2-3)Gal(b1-3)GalNAc = molecular target: Kdn(a2-3)Gal(b1-3)GalNAc
# Procedure, shortened: as §1
# Kdn(a2-3)Gal(b1-3)GlcNAc = molecular target: Kdn(a2-3)Gal(b1-3)GlcNAc
# Procedure, shortened: as §1
# Kdn(a2-3)Gal(b1-4)Glc = molecular target: Kdn(a2-3)Gal(b1-4)Glc
# Procedure, shortened: as §1
# Kdn(a2-3)Gal(b1-4)GlcNAc = molecular target: Kdn(a2-3)Gal(b1-4)GlcNAc
# Procedure, shortened: as §1
# [26] = molecular target: Kdn(a2-3)Gal(b1-4)[Fuc(a1-3)]GlcNAc
# Procedure, shortened: as §1
# Kdn(a2-6)Gal(b1-4)GlcNAc = molecular target: Kdn(a2-6)Gal(b1-4)GlcNAc
# Procedure, shortened: as §1
# [27] = molecular target: Man(a1-2)Man(a1-2)Man(a1-3)Man
# Procedure, shortened: as §1
# [28] = molecular target: Man(a1-2)Man(a1-2)Man(a1-6)[Man(a1-3)]Man
# Procedure, shortened: as §1
# Man(a1-2)Man(a1-3)Man = molecular target: Man(a1-2)Man(a1-3)Man
# Procedure, shortened: as §1
binder,measurement,setting,value
B1,glycan array binding signal (z-score),[1],2.21
same,glycan array binding signal (z-score),[2],0.866
same,glycan array binding signal (z-score),[3],0.214
same,glycan array binding signal (z-score),[4],-0.156
same,glycan array binding signal (z-score),[5],1.72
same,glycan array binding signal (z-score),[6],0.012
same,glycan array binding signal (z-score),[7],-0.211
same,glycan array binding signal (z-score),[8],1.01
same,glycan array binding signal (z-score),[9],-0.052
same,glycan array binding signal (z-score),[10],-0.155
same,glycan array binding signal (z-score),[11],-0.241
same,glycan array binding signal (z-score),[12],0.496
same,glycan array binding signal (z-score),[13],0.144
same,glycan array binding signal (z-score),[14],-0.068
same,glycan array binding signal (z-score),[15],0.202
same,glycan array binding signal (z-score),GlcNAc(b1-3)GalNAc,-0.301
same,glycan array binding signal (z-score),GlcNAc(b1-3)Man,0.501
same,glycan array binding signal (z-score),[16],-0.146
same,glycan array binding signal (z-score),[17],-0.312
same,glycan array binding signal (z-score),[18],-0.287
same,glycan array binding signal (z-score),[19],-0.278
same,glycan array binding signal (z-score),GlcNAc(b1-4)GlcNAc,1.79
same,glycan array binding signal (z-score),[20],-0.322
same,glycan array binding signal (z-score),[21],-0.09
same,glycan array binding signal (z-score),[22],-0.256
same,glycan array binding signal (z-score),[23],-0.059
same,glycan array binding signal (z-score),[24],-0.132
same,glycan array binding signal (z-score),GlcNAc(b1-6)GalNAc,-0.189
same,glycan array binding signal (z-score),[25],-0.039
same,glycan array binding signal (z-score),Kdn(a2-3)Gal(b1-3)GalNAc,0.948
same,glycan array binding signal (z-score),Kdn(a2-3)Gal(b1-3)GlcNAc,-0.191
same,glycan array binding signal (z-score),Kdn(a2-3)Gal(b1-4)Glc,-0.048
same,glycan array binding signal (z-score),Kdn(a2-3)Gal(b1-4)GlcNAc,-0.355
same,glycan array binding signal (z-score),[26],0.132
same,glycan array binding signal (z-score),Kdn(a2-6)Gal(b1-4)GlcNAc,0.735
same,glycan array binding signal (z-score),[27],-0.082
same,glycan array binding signal (z-score),[28],-0.275
same,glycan array binding signal (z-score),Man(a1-2)Man(a1-3)Man,-0.299
